{
  "source": "PubChem BioAssay AID624170",
  "about": "(National Center for Advancing Translational Sciences (NCATS), 2012)",
  "note": "Among all 410,000 compounds or so, about 850 (0.21%) were called active. The shares of active, inactive and inconclusive entries below differ from those in the screen. Calls come from the whole dose curve; as a rule, active = well fitted inhibition curve with a large enough effect; inconclusive = small, poorly fitted or top-dose-only effect, or another doubt; inactive = no such curve, though single readings can be large or run the other way. Potencies of inconclusive entries are left out as doubtful fits. Potency is the fitted concentration of half-maximal effect; tags give direction and shape of the fitted curve.",
  "data": [
    {"target": "Glutaminase kidney isoform, mitochondrial (Homo sapiens) (UniProt O94925)", "sequence (O94925 whole entry, looked up, canonical isoform)": "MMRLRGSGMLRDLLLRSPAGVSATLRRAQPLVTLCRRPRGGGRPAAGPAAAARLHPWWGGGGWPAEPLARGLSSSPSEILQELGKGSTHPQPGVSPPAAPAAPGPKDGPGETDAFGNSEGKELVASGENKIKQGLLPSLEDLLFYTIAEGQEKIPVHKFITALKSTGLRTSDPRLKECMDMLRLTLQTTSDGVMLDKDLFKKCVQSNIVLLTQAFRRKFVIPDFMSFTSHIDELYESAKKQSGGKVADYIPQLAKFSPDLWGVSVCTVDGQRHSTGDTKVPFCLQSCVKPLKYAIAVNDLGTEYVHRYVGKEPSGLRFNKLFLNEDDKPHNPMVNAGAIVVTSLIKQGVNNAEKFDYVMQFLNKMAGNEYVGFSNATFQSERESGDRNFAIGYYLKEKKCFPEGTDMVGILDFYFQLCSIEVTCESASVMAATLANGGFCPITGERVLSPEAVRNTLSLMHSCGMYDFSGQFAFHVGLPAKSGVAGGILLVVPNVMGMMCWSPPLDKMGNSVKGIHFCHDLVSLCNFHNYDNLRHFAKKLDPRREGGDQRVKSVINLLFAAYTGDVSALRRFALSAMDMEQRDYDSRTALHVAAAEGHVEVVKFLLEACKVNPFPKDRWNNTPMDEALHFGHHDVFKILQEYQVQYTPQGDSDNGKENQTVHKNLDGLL", "test": "qHTS for Inhibitors of Glutaminase (GLS)", "conditions": "GLS enzymatic activity, qHTS titration; series mostly up to 45.5 µM", "excerpt": "Glutaminase (GLS) catalyzes the hydrolysis of glutamine into glutamate and ammonia. It plays a critical role in glutaminolysis, which is an important energy source for proliferating cells. It was shown that c-Myc, an oncogenic transcription factor known to regulate microRNAs and to stimulate cell proliferation, increases glutamine metabolism by stimulating the expression of GLS via direct suppression of miR23a and miR23b.\nGLS is also thought to play a pathogenic role on HAD using a human HIV-1 infected macrophage system. […] GLS inhibition limits glutamate release and provides neuroprotection against HIV-1 infected macrophages.\nThe overall goal of this project is to identify small molecule inhibitors of GLS through quantitative high throughput screening (qHTS) of the MLSMR. A validated potent and selective inhibitor can be used as a tool molecule to further study the pharmacology of its target as well as explore its potential therapeutic application in cancer and inflammatory neurological disorders, such as HIV1-associated dementia (HAD) and multiple sclerosis.\nNIH Chemical Genomics Center [NCGC]\nNIH Molecular Libraries Probe Centers Network [MLPCN]\nAssay Submitter (PI): Barbara S. Slusher, Johns Hopkins University\nThree 3 uL of hKGA is dispensed into black well 1536-well plates in 45 mM KH2PO4 (pH 8.2), 0.02% Tween-20. Then 23 nL of compounds are added through pin tool transfer. To this, 1 uL of 1mM L-Glutamine and 1 uL of a solution of L-Glutamateoxidase, HRP, Amplex red are added. Plate is centrifuged for 25 sec before an initial fluorescence read is obtained on the ViewLux, after 30 min of RT incubation, the final read is taken on the ViewLux.", "values": [
      {"smiles": "O=C(Cc1ccccc1)NNC(=O)C1CCCC1", "Potency": "inconclusive [inhibitor, full curve, poor fit]"},
      {"smiles": "O=C(Nc1cccc(C(F)(F)F)c1)c1cc2c(=O)c3ccccc3oc2nc1C(F)(F)F", "Potency": "inconclusive [inhibitor, single point]"},
      {"smiles": "Cc1ccc(S(=O)(=O)Nc2cccnc2)cc1", "Potency": "inconclusive [inhibitor, single point]"},
      {"smiles": "C[C@H](O)[C@@H]1CN2CCc3c([nH]c4ccccc34)[C@@H]2C[C@@H]1N(C)C(=O)Nc1cc(Cl)cc(Cl)c1", "Potency": "inconclusive [inhibitor, single point]"},
      {"smiles": "CSC1=NCCN1C(=O)c1c(F)cccc1Cl", "Potency": "inactive"},
      {"smiles": "CCOC(=O)c1cc(NC(=O)c2ccc(C)cc2)c(=O)n2c1oc1ccccc12", "Potency": "inactive"},
      {"smiles": "Fc1ccccc1N1CCN(CC2CCCCC2)CC1", "Potency": "inactive"},
      {"smiles": "Cc1ccc(O/C=C2\\OC(=O)c3ccccc32)cc1", "Potency": "inconclusive [inhibitor, single point]"},
      {"smiles": "COc1cc(/C=C/c2cc(C(=O)O)c3ccccc3n2)ccc1OC(F)F", "Potency": "inconclusive [inhibitor, partial curve, poor fit]"},
      {"smiles": "CCNC(=O)c1ccccc1SCC(=O)Nc1ccc(F)cc1", "Potency": "inconclusive [inhibitor, single point]"},
      {"smiles": "NCCCNC(=O)c1ccc(/C=N/O)nc1", "Potency": "inconclusive [inhibitor, single point]"},
      {"smiles": "CCN(C(C)=O)c1cnc(C=NNC(N)=S)c2ccccc12", "Potency": "inactive"},
      {"smiles": "Cc1ccc(-c2ncc(Cl)cc2-c2ccc(S(C)(=O)=O)cc2)cn1", "Potency": "inactive"},
      {"smiles": "Cn1c(NCc2ccco2)nc2c1c(=O)n(Cc1ccc(Cl)cc1)c(=O)n2C", "Potency": "inconclusive [inhibitor, single point]"},
      {"smiles": "COc1ccc(-c2cc(-c3n[nH]c(=S)n3-c3cccc4ccccc34)[nH]n2)cc1", "Potency": "inconclusive [inhibitor, single point]"},
      {"smiles": "O=C(O)CC/C(=C/c1cccc(NC(=O)c2ccccc2Cl)c1)c1nc2ccccc2s1", "Potency": "inconclusive [inhibitor, partial curve, poor fit]"},
      {"smiles": "C=CCOc1cccc(C2C(C(=O)c3ccco3)=C(O)C(=O)N2Cc2ccncc2)c1", "note": "(stereo not given)", "Potency": "inactive"},
      {"smiles": "O=C(O)[C@@H]1[C@@H]2C[C@H]3c4[nH]c5ccccc5c4CCN3C[C@@H]2CC[C@@H]1O", "Potency": "inconclusive [inhibitor, partial curve]"},
      {"smiles": "Cc1sc2ncnc(N/N=C/c3cccc(O)c3)c2c1C", "Potency": "inconclusive [inhibitor, single point]"},
      {"smiles": "O=[N+]([O-])c1ccc2c(c1N1CCCCC1)=NC1(CCCCC1)[N+]=2[O-]", "Potency": "inactive"},
      {"smiles": "CCN(CC)c1ccc(NC(=O)Nc2cccc3ccccc23)cc1", "Potency": "inconclusive [inhibitor, partial curve]"},
      {"smiles": "COc1ccc(O)c(/C=N/NC(=O)CCC(=O)Nc2ccc(F)cc2)c1", "Potency": "inconclusive [inhibitor, partial curve, poor fit]"},
      {"smiles": "CCOc1ccc(Nc2nc(Cc3nnc(SCC(=O)O)o3)cs2)cc1", "Potency": "inconclusive [inhibitor, single point]"},
      {"smiles": "O=C(CN(C1CCCCC1)S(=O)(=O)c1ccccc1)N1CCCC1", "Potency": "inactive"},
      {"smiles": "CC(=O)c1ccc(N2CCN(c3ccccc3O)CC2)c([N+](=O)[O-])c1", "Potency": "inconclusive [inhibitor, partial curve]"},
      {"smiles": "COc1cccc(CN2CCN(Cc3ccc(O)c(OC)c3)CC2CCO)c1", "note": "(stereo not given)", "Potency": "inconclusive [inhibitor, single point]"},
      {"smiles": "C[C@H](NC(=O)[C@H](Cc1ccccc1)NC(=O)c1cc2cc(Cl)ccc2n1C)C(=O)O", "Potency": "inconclusive [inhibitor, partial curve, poor fit]"},
      {"smiles": "CCCC(=O)Nc1ccc(NC(=O)CCc2ccccc2)cn1", "Potency": "inconclusive [inhibitor, single point]"},
      {"smiles": "Cc1cc(N/N=C/c2ccc(O)cc2)nc(NS(=O)(=O)c2ccccc2)n1", "Potency": "active: 12.6 µM"},
      {"smiles": "Nc1nc(SCC(=O)C23CC4CC(CC(C4)C2)C3)n[nH]1", "Potency": "inconclusive [inhibitor, single point]"},
      {"smiles": "COc1cc(OC)nc(Oc2ccccc2C(=O)Oc2ccc(Cl)cc2)n1", "Potency": "inactive"},
      {"smiles": "O=C(/C=C/c1ccccc1)NC(=S)NNC(=O)Cc1cccs1", "Potency": "inactive"},
      {"smiles": "S=c1[nH]ncn1NCc1cccc(Br)c1", "Potency": "inconclusive [inhibitor, single point]"},
      {"smiles": "COCOCCn1cc(CN2CCS(=O)(=O)N(Cc3ccc(-c4ccc(F)nc4)cc3)C(CC(C)C)C2=O)nn1", "note": "(stereo not given)", "Potency": "inconclusive [inhibitor, single point]"},
      {"smiles": "COc1ccc(CC(=O)NNC(=O)c2ccc(Br)s2)cc1OC", "Potency": "inactive"},
      {"smiles": "CCOC(=O)C1CCCN(Cc2ccccc2OCC)C1", "note": "(stereo not given)", "Potency": "inactive"},
      {"smiles": "O=C(O)c1cc(S(=O)(=O)Nc2cccc(Oc3ccccc3)c2)ccc1Br", "Potency": "inconclusive [inhibitor, single point]"},
      {"smiles": "COc1ccc(-c2cc(C(F)(F)F)n3nc(C(=O)O)c(Cl)c3n2)cc1OC", "Potency": "inactive"},
      {"smiles": "Cc1cc(C(=O)CN2C(=O)c3ccccc3C2=O)c(C)n1C1CC1", "Potency": "inactive"},
      {"smiles": "O=C(CCCN1C(=O)/C(=C/c2ccccc2)SC1=S)Nc1ccc(C(=O)O)c(O)c1", "Potency": "inconclusive [inhibitor, single point]"},
      {"smiles": "O=C(CSc1nnc(SCc2cccc3ccccc23)s1)Nc1ccc(C(=O)O)cc1", "Potency": "inconclusive [inhibitor, single point]"},
      {"smiles": "O=C(NC(Cc1ccccc1)C(=O)O)/C(=C/c1ccc(Br)cc1)NC(=O)c1ccc(Br)o1", "note": "(stereo not given)", "Potency": "inconclusive [inhibitor, single point]"},
      {"smiles": "COc1cc2nc(Nc3ccc(C)c(Cl)c3)nc(N)c2cc1OC", "Potency": "inactive"},
      {"smiles": "Cc1cccc(NNC(N)=S)c1", "Potency": "inconclusive [inhibitor, partial curve, poor fit]"},
      {"smiles": "O=C1NC2(CCCCCC2)C(=O)N1Cc1cccc(Cl)c1", "Potency": "inconclusive [inhibitor, partial curve]"}
    ]}
  ]
}
